Test results reported in the supplement of paper PMC3334620.
Whole data set: some 33,000 sequences, median “E-score (-0.5 to 0.5)” near -0.017, cut for the highest 2% near 0.3. Some of the results follow.

Target: T1, Sut1 (UniProt P53032)
T1 sequence: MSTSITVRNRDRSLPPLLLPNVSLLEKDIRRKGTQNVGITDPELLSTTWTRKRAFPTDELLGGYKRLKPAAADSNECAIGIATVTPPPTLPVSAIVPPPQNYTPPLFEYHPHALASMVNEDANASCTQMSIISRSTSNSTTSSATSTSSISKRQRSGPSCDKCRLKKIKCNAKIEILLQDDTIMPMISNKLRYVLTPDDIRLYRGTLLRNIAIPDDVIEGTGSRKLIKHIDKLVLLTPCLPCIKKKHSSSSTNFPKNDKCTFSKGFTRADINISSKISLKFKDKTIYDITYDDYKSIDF
Test: PBM E-score (8-mer binding enrichment) (E-score (-0.5 to 0.5)); higher = stronger / more preferred TF binding; most listed sequences are background and not binding sites
Conditions: protein concentration: 200 nM; construct: GST-full length
Method in brief: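 Using PURExpress in vitro transcription/translation, GST-tagged yeast transcription factors were made in full-length or DNA-binding-domain form. These were applied at about 100-200 nM to double-stranded universal all-10-mer Agilent arrays, and bound protein was detected with fluorescent anti-GST. Scans were normalised with masliner before the Universal PBM Analysis Suite assigned E-scores to ungapped eight-base words pooled with their reverse complements.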

| Sequence | PBM E-score |
| --- | --- |
| GGTCTGCA | -0.0604 |
| GGTCCCCA | -0.133 |
| GTTGAACA | -0.0558 |
| TAAGAAAA | 0.262 |
| CGTTCCAA | 0.106 |
| CCACAAAC | 0.0626 |
| GCCCGTAC | -0.215 |
| AGCCCTCA | -0.247 |
| AAACTAGG | 0.0814 |
| CTCAAAAA | 0.054 |
| TTCGGCAA | 0.0822 |
| CAGATGCG | -0.162 |
| GTTTCATA | 0.0407 |
| AACTTCGG | 0.294 |
| CGCAACGA | 0.0591 |
| ATTTCAGA | 0.00515 |
| GCTTCCAA | 0.119 |
| AAATTCTA | 0.131 |
| CCGGTATA | 0.0186 |
| ACGGATCA | 0.113 |
| AGTCAATA | 0.169 |
| AGCGGCGA | 0.0499 |
| GCTTTGCC | -0.101 |
| TTAACTAA | 0.238 |

| Sequence | PBM E-score |
| --- | --- |
| TCCCCACA | -0.262 |
| GCAAAGTA | 0.0736 |
| AACCTGGG | -0.263 |
| CCCGCACA | -0.226 |
| AAGGTTGT | 0.0599 |
| GGGTTCTA | -0.0976 |
| AAAGCTTG | -0.0326 |
| AGTGAGGA | -0.144 |
| AAAAGCCC | 0.113 |
| AATACCCT | 0.00628 |
| CATACGAG | -0.242 |
| CTTCTATA | 0.0327 |
| GCGCAGGA | -0.229 |
| CCTTACCC | -0.153 |
| CATCAATG | -0.00429 |
| CTGTTCAC | -0.169 |
| CACTGACA | -0.0631 |
| AAAGTCTG | -0.0775 |
| CTCCGGTA | 0.413 |
| TCAGCTCA | -0.0437 |
| ATGCTTCC | -0.0222 |
| ATTACCCG | -0.00694 |
| CTCCGCTC | 0.295 |
| ACACGGCA | -0.0415 |

| Sequence | PBM E-score |
| --- | --- |
| ACAGGCAG | -0.101 |
| ACACCTGA | -0.104 |
| AAGGAATC | -0.0249 |
| GTTAGCGA | 0.0425 |
| AGCCTCAA | -0.0777 |
| GCCTTCTA | -0.0376 |
| ACCTTATC | 0.0449 |
| CCGGTGGC | -0.00565 |
| AAGACGGT | -0.0442 |
| GTTGTGCA | -0.266 |
| CCCACCCG | -0.147 |
| AACTTCGT | 0.0951 |
| ACCCAATG | -0.0962 |
| ACGGCATC | -0.0922 |
| ATGTACTC | 0.146 |
| GTTTTTGA | 0.164 |
| ATGCGGCA | -0.135 |
| AAAGTAGA | 0.0665 |
| GATCGCTA | -0.0253 |
| GCACTGGA | -0.187 |
| GCCAATCC | -0.0199 |
| CTCAGGGA | -0.287 |
| CTCGACGA | -0.123 |
| CCTGCTCG | -0.299 |

| Sequence | PBM E-score |
| --- | --- |
| CGGCGGAG | 0.178 |
| AGAGTGCC | -0.161 |
| GCAATTTA | 0.18 |
| CTAAGGGC | -0.288 |
| GTCTAATA | 0.0514 |
| TCGGGAAA | 0.0513 |
| AAACGCAT | -0.26 |
| TATGATAA | 0.233 |
| ATTTGACA | 0.122 |
| CCATCCGA | 0.0728 |
| ATAATCAA | 0.221 |
| CCCGACTA | -0.00983 |
| CGGATAAA | 0.341 |
| CGCTCTAC | -0.137 |
| CAGCGCAC | -0.192 |
| ATTGCCGG | 0.103 |
| AGGCTCGG | 0.154 |
| ACTTTACA | 0.115 |
| TATTGGAA | 0.089 |
| GTCTGATA | -0.0593 |
| AGAAACCG | -0.0248 |
| GCAGGGGC | -0.322 |
